Results as given in patent US20200255480A1 (Harvard, published 2020).

Biological target: T1, wild-type CsgA (Escherichia coli, UniProt P28307)
T1 construct: The protein stood assembled into curli fibres on biofilms, or as sheared fibres in the gel experiment; also called wt-CsgA; CsgA WT
Experiment: denaturing SDS-PAGE after incubation of AmylaseSC with crudely purified curli fibres (FIG. 9)

B1: Amylase-SpyCatcher (enzyme)
chain: not shown
notes: It was expressed from pET28b in Rosetta cells and purified on Ni-NTA; also called AmylaseSC; Amylase-SC
- binding result: no binding
